Screen size: about 310,000 compounds; about 14,000 (4.5%) showed an effect of 50% or more. The effect is printed as a negative number. This is one part of the list.
The molecules below were run against human ether-à-go-go-related gene (hERG) potassium channel (human, UniProt Q12809) (assay: primary screen, population patch clamp on CHO cells stably expressing hERG).
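Note: peak tail current of the secondary pulse compared with the same well before compound.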

human ether-à-go-go-related gene (hERG) potassium channel, sequence (Q12809 whole entry, looked up): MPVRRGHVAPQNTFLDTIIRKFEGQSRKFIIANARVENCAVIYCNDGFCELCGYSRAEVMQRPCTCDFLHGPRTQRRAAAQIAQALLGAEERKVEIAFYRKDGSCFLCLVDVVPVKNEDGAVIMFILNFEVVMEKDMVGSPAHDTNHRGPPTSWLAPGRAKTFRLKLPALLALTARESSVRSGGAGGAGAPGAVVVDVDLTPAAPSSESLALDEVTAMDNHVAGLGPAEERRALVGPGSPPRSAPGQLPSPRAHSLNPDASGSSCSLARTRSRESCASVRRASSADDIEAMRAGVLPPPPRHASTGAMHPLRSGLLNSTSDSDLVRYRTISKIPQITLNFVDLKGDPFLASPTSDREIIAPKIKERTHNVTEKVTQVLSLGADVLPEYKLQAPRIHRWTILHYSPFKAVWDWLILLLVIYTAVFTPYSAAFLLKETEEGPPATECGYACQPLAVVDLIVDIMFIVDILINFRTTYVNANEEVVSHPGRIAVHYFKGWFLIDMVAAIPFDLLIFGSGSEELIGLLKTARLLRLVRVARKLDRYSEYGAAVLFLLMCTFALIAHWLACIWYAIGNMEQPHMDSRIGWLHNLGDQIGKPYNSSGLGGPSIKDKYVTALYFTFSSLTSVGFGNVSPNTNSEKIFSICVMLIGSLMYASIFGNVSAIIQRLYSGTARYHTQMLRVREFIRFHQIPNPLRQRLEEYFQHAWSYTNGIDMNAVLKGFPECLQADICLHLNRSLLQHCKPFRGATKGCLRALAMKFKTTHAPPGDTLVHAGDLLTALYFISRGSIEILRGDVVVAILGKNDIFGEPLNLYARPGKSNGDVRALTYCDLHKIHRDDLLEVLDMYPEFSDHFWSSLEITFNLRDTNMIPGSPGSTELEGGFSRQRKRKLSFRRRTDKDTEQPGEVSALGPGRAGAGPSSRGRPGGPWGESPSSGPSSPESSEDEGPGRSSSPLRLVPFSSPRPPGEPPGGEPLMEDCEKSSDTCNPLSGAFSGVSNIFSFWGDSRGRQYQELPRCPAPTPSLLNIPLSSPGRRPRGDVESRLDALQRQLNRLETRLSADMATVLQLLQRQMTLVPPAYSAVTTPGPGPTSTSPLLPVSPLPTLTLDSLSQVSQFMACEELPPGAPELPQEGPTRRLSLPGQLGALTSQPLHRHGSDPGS

Compound | hERG current change (%, negative = inhibition) at 10uM
CCN(CC)S(=O)(=O)c1cc(OCC(N)=O)c(C)cc1Cl | -12.4%
O=S(=O)(NC1CCCCCCC1)c1ccccc1 | 2.12%
COc1ccc(-c2nc3c([nH]2)c(=O)n(C)c(=O)n3C)c(OC)c1 | 10.1%
CC(NC(=O)Nc1ccc([N+](=O)[O-])cc1)C(c1cccs1)N1CCCC1 (stereo not drawn) | -60.1%
Cc1cccc(NC(=O)CSc2nccn2C)c1 | 7.61%
Cc1onc(-c2ccccc2)c1C(=O)Nc1cccc(S(=O)(=O)NC2=NCCC2)c1 | 16.6%
CCN(CC)c1ccc(/C=N/NC(=O)c2ccc([N+](=O)[O-])cc2)cc1 | 20.2%
CCOc1cccc(CN2CCN(CCc3ccccc3)C(CCO)C2)c1O (stereo not drawn) | -69.7%
Cc1csc(NC(=O)c2cncc(Br)c2)n1 | 6.64%
CC(C)[C@H](NC(=O)c1ccco1)C(=O)Nc1ccc(OC(F)F)cc1 | -18.3%
CC12CCC(=O)N1C(C(=O)Nc1nnc(SCc3ccc(F)cc3)s1)CS2 (stereo not drawn) | -15.2%
CN1CCN(C(=O)CN(c2cccc(Br)c2)S(=O)(=O)c2ccccc2)CC1 | -35.1%
O=C(Nc1ccc(Cl)cc1)NC1CCCc2ccccc21 (stereo not drawn) | -11.4%
O=C(NCCc1c[nH]c2ccccc12)c1c(Cl)nc2sccn12 | 15.4%
Cc1noc(NS(=O)(=O)c2ccc(NC(=O)CCn3c(=O)oc4ccccc43)cc2)c1C | -0.24%
CC(C)(C)C(=O)C1=C(O)C(=O)N(c2ccccc2)C1c1ccccc1 (stereo not drawn) | 16.2%
CCOc1ccc(NS(=O)(=O)c2ccc3[nH]cc(C(=O)NCC4CCCO4)c(=O)c3c2)cc1 (stereo not drawn) | 12.8%
Cc1cc(-c2csc(NC(=O)c3ccc(=O)n(C)n3)n2)c(C)n1CC1CCCO1 (stereo not drawn) | 17.2%
CC(=O)N1C(C)(C)CC(=NOC(=O)c2ccc(C)cc2)CC1(C)C | 13.6%

Compound | hERG current change (%, negative = inhibition) at 10uM
Cc1ccc(CN2CCN(c3ccccn3)CC2)s1.O=C(O)C(=O)O | -39.8%
CCN(CC)CCn1c(/N=C/c2cc(Br)ccc2O)nc2ccccc21 | -26.9%
COc1ccc(C2(C(=O)c3ccccc3)C(=O)c3ccccc3C2=O)cc1 | 16.4%
COCCCNCCCCSc1ccc(Cl)cc1 | -37.9%
Cc1nnc(SCC(=O)Nc2ccc(N3CCOCC3)cc2)o1 | 10.3%
CCC(C)(C)n1nnnc1C(c1ccc(C)cc1)N1CCN(C(=O)c2ccco2)CC1 (stereo not drawn) | -45.8%
CC(=O)c1ccc(Nc2nc(N3CCOCC3)nc(N3CCOCC3)n2)cc1 | -6.33%
O=C(COC(=O)/C=C/c1cccc(Cl)c1Cl)Nc1ccc2[nH]c(=O)[nH]c2c1 | 11.3%
C=CCn1c(C)cc(C(=O)CSc2nc3ccccc3c(=O)[nH]2)c1C | 9.49%
CCCCn1c(SCC(=O)OCC)nc2c1c(=O)[nH]c(=O)n2C | -41.9%
CC1CCN(c2ccc(NC(=O)Cc3ccccc3)cc2)CC1 | 17.8%
COc1cc(C2NC(=O)NC(O)(C(F)(F)F)C2C(C)=O)cc(OC)c1OC (stereo not drawn) | 4.75%
O=C(CC1C(=O)NCCN1Cc1c(F)cccc1Cl)NCCCn1ccnc1 (stereo not drawn) | 4.6%
COCCNS(=O)(=O)c1cc(F)ccc1OC | 14.2%
CCOP(=O)(OCC)C(NC(=O)Nc1ccc(Cl)cc1)C(N)=O (stereo not drawn) | 3.65%
COC(=O)c1ccccc1NC(=O)CN1CCN(Cc2ccccc2)CC1 | -74.5%
Cc1csc(NC(=O)CSc2nnc(-c3ccco3)n2C)n1 | -31.6%
Cn1cc(CN2CCC(n3nccc3NC(=O)Cc3ccccc3)CC2)cn1 | -41.8%
CCOC(=O)N=S(N)(=O)c1ccccc1 (stereo not drawn) | -8.48%

Compound | hERG current change (%, negative = inhibition) at 10uM
C=C(C)CNC(=S)N/N=C/c1ccc(N2CCOCC2)cc1 | 20.3%
CC1CCN(C(=O)COC(=O)c2cc(S(=O)(=O)N3CCOCC3)ccc2Cl)CC1 | -2.23%
Cc1cc(NC(=O)COc2ccc(C)c(C)c2)no1 | 18.2%
COc1ccc(NC(=O)c2sc3nc(C)nc(N4CCOCC4)c3c2C)c(OC)c1 | 9.38%
CCCCN(CCCC)CCNC(=O)CN1C(=O)COc2ccc(S(=O)(=O)N3CCOCC3)cc21 | -42.3%
COc1ccc2c(c1)oc(=O)c1ccccc12 | -8.58%
O=C(c1cccnc1)N1C2C=CC(C2)C1(C(F)(F)F)C(F)(F)F (stereo not drawn) | 14.6%
CCCn1c(=O)c2ccccc2n2c(SCCOc3ccc(C)cc3)nnc12 | -9.07%
CC1(C)C(=O)Nc2ccccc2N1C(=O)COC(=O)Cn1cnc2ccccc2c1=O | -5.08%
O=C(NC1(O)C(=O)c2ccccc2C1=O)c1ccccc1 | 3%
O=C(NC1CCCCC1)C(c1cccnc1)N(C(=O)c1csnn1)c1ccc(F)cc1 (stereo not drawn) | -3.2%
Cl.Nc1ccc(C(=O)N/N=C2/CN3CCC2CC3)cc1 | 12.7%
CSc1ccccc1NC(=O)c1ccc2c(c1)CCN2S(C)(=O)=O | -5.43%
CCN(CC)C(=O)c1ccc(NC(=O)c2sccc2-c2ccccc2)cc1 | 8.25%
COc1ccccc1N1CCN(C(=O)c2cc(=O)c3cc(C)cc(C)c3o2)CC1 | -27.3%
Cc1ccc2c(c1)NC(=O)c1cccnc1N2 | -1.31%
Cc1cc(Nc2ccccc2)n(CCOC(=O)COc2ccccc2)n1 | 7.87%
CC(C)(CNC(=O)CC1C(=O)NCCN1Cc1cccc(F)c1)N1CCOCC1 (stereo not drawn) | 11%
CSCC[C@H](NC(=O)[C@@H]1Cc2ccccc2CN1)C(=O)NCC1CCC(C(=O)O)CC1.Cl (stereo partly drawn) | -14.1%

— paper PMC4336329 (PLoS ONE, 2015)
